The campaign covered roughly 310,000 compounds. About 2,200 (0.71%) showed an effect of 50% or more. Effects have a minus sign here. The list shows a part of the results.
What follows are compounds tested against human ether-à-go-go-related gene (hERG) potassium channel (human, UniProt Q12809) (assay: primary screen, population patch clamp on CHO cells stably expressing hERG).
Chain of human ether-à-go-go-related gene (hERG) potassium channel (Q12809 whole entry, looked up): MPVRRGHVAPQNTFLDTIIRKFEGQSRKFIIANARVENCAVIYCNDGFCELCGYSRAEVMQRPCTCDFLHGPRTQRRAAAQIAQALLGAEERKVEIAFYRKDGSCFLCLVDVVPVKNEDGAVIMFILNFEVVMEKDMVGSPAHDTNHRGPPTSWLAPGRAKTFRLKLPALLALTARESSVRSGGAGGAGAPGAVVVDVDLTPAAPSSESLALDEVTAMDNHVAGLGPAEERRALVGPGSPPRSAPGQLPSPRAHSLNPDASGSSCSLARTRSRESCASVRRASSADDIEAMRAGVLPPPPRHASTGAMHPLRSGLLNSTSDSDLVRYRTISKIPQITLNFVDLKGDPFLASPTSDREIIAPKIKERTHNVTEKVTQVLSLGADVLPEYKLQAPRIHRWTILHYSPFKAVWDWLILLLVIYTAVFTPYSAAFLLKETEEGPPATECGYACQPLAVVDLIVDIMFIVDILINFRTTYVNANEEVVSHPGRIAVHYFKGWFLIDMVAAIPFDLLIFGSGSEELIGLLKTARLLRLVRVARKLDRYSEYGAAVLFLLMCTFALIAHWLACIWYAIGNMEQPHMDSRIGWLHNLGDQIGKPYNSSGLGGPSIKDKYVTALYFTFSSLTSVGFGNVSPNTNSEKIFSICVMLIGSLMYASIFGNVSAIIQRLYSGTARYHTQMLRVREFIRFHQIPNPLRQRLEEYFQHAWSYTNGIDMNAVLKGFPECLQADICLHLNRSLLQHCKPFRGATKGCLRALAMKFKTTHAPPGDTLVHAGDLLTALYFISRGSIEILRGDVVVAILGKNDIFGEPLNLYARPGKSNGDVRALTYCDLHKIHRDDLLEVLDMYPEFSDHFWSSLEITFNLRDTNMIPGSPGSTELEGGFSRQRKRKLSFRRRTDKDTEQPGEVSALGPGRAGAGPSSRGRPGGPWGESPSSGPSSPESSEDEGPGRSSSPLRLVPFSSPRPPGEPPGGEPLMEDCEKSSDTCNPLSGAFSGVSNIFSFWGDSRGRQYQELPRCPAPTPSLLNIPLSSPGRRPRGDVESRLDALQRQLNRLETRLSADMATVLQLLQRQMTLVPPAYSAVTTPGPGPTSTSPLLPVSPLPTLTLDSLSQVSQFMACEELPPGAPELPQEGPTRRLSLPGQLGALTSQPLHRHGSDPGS
In the case of `O=C(NC(=S)Nc1cccc(Cl)c1N1CCOCC1)c1cccs1`, the “hERG current change (%, negative = inhibition) at 1uM” value is reported as 16.2%.
For `COc1ccc(S(=O)(=O)N2CCCC2)cc1C(=O)N1CCCCC1`, the “hERG current change (%, negative = inhibition) at 1uM” value was 11.6%.
With `O=C(CCl)NNC(=O)c1c(O)c2ccccc2[nH]c1=O` the “hERG current change (%, negative = inhibition) at 1uM” value was 9.94%.
`CN1CCCN(S(=O)(=O)c2ccc3c(c2)OCCO3)CC1` was tested, and the “hERG current change (%, negative = inhibition) at 1uM” value was 12.7%.
With `COc1ccccc1S(=O)(=O)NCc1ccc(C(=O)NC(C)c2ccccn2)cc1` (stereo not shown) the “hERG current change (%, negative = inhibition) at 1uM” value was 10.9%.
For `Cc1cc(SCC(=O)N/N=C/c2ccccc2C(=O)O)c(C)cc1Br`, the “hERG current change (%, negative = inhibition) at 1uM” value was 8.44%.
With `CC(C)C(C)NC(=O)Cn1cnc2c(oc3ccccc32)c1=O` (stereo not shown) the “hERG current change (%, negative = inhibition) at 1uM” value was 10.8%.
For `COc1ccc(Br)cc1C(=O)NC(=S)Nc1ccc(CN2CCOCC2)cc1`, the “hERG current change (%, negative = inhibition) at 1uM” value was -0.395%.
`CCOc1ccc(-c2n[nH]c(C)c2Oc2ccc(OC)cc2)c(O)c1` was tested, and the “hERG current change (%, negative = inhibition) at 1uM” value was -6.34%.
With `O=[N+]([O-])c1ccccc1N/N=C1\CCc2ccccc21` the “hERG current change (%, negative = inhibition) at 1uM” value was 8.96%.
For `C(#Cc1ccccc1)CN1CCCCC1.Cl`, the “hERG current change (%, negative = inhibition) at 1uM” value was 2.27%.
With `C=CCOC(=O)C1=C(C)NC(=O)NC1c1cn(-c2ccccc2)nc1-c1cccs1` (stereo not shown) the “hERG current change (%, negative = inhibition) at 1uM” value was 10.8%.
For `COc1ccc(N2CCN(C(=O)COC(=O)c3ccc(C)o3)CC2)cc1`, the “hERG current change (%, negative = inhibition) at 1uM” value was 12.5%.
In the case of `COc1cc(/C=C/C(=O)N2CCCN(C(=O)/C=C/c3cc(OC)c(OC)c(OC)c3)CC2)cc(OC)c1OC`, the “hERG current change (%, negative = inhibition) at 1uM” value is reported as 9.62%.
With `O=C(NCc1cccnc1)C1c2ccccc2C(=O)N1Cc1ccco1` (stereo not shown) the “hERG current change (%, negative = inhibition) at 1uM” value was -0.149%.
With `CC(=O)Nc1cccc(/C(C)=N/N2C(C)CCCC2C)c1` (stereo not shown) the “hERG current change (%, negative = inhibition) at 1uM” value was 16.8%.
`O=C(CSc1nc(Nc2ccccc2)nc(N2CCOCC2)n1)Nc1ccc([N+](=O)[O-])cc1` was tested, and the “hERG current change (%, negative = inhibition) at 1uM” value was 7.87%.
`CCOC(=O)Cn1c(=O)c2c(nc3n2CCS3)n(C)c1=O` was tested, and the “hERG current change (%, negative = inhibition) at 1uM” value was 9.3%.
With `Cc1ccc2c(c1)C1CN(C)CCC1N2S(=O)(=O)c1ccccc1` (stereo not shown) the “hERG current change (%, negative = inhibition) at 1uM” value was -3.52%.
For `COc1ccc(S(=O)(=O)N2CCCC2)cc1OC`, the “hERG current change (%, negative = inhibition) at 1uM” value was 13%.
`Cc1cc(C)cc(NC(=O)c2c(C)nc3ccccn23)c1` was tested, and the “hERG current change (%, negative = inhibition) at 1uM” value was 16.4%.
In the case of `O=c1oc2ccccc2c(NCCO)c1[N+](=O)[O-]`, the “hERG current change (%, negative = inhibition) at 1uM” value is reported as 10.3%.
`CCN(CC)CCOC(=O)c1ccc(NC(=O)COc2cc(=O)n(CC)c3ccccc23)cc1` was tested, and the “hERG current change (%, negative = inhibition) at 1uM” value was 13.9%.
`CCn1c(SCC(=O)c2ccccc2)nnc1-c1cccs1` was tested, and the “hERG current change (%, negative = inhibition) at 1uM” value was 0.612%.
With `O=C(CSc1nnc(-c2ccccc2)c(-c2ccccc2)n1)N1CCc2ccccc21` the “hERG current change (%, negative = inhibition) at 1uM” value was 13.6%.
